Source: PubChem BioAssay AID686979 (National Center for Advancing Translational Sciences (NCATS), 2013)
About 50,000 (12%) of roughly 420,000 compounds were called active. Inconclusive results, whose numbers are uncertain, are shown with a selection of clear calls. The call rests on the fitted dose curve; in most records, active means well fitted inhibition curve with a large enough effect; inconclusive means small, poorly fitted or top-dose-only effect; inactive means flat fitted curve, though single readings scatter. Potencies of inconclusive entries are left out as doubtful fits.
Potency means the concentration at half of the fitted maximal effect; tags describe the fitted curve by direction and shape.

Experiment: qHTS for Inhibitors of human tyrosyl-DNA phosphodiesterase 1 (TDP1): qHTS in cells in presence of CPT; further: nearly all actives have a fitted effect of over 55% in size
Settings: chicken DT40 Tdp1-/-;hTDP1 cells + 20 nM CPT, ATP luminescence, 48 h; series mostly up to 46.2 µM
Summary of the method: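 Chicken DT40 Tdp1-/- cells complemented with human TDP1, 400 cells/well, exposed to compounds plus 20 nM camptothecin for at least 48 h at 37 C; viability read as ATP content by CellTiter-Glo luminescence.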
For `CCOC(=O)c1ccc(NC(=O)Nc2ccc(OC)c(OC)c2)cc1`, the Potency was inconclusive [inhibitor, partial curve]. For `CC(C)c1ccc(C(=O)N2CCCC(c3cc(C(=O)Nc4ccc5c(c4)OCO5)no3)C2)cc1` (stereo not drawn), the Potency was inconclusive [inhibitor, single point]. For `COC(=O)c1cc(CNC(=O)c2ccccc2OC)cc(NC(=O)c2ccccc2F)c1`, the Potency was active: 20.6 µM. For `Cc1cc(NC(=O)c2cc3n(n2)C(C(F)(F)F)CC(c2ccco2)N3)n(-c2ccccc2)n1` (stereo not drawn), the Potency was inconclusive [inhibitor, single point]. With `CC(C)OC(=O)CC(=O)CSc1nc(-c2ccc(F)cc2)cc(-c2ccccc2)c1C#N` the Potency was “inactive”. With `COc1ccc(-c2nn(-c3ccccc3)cc2C(=O)NC(=S)N2CCOCC2)cc1OC` the Potency was inconclusive [inhibitor, single point]. For `CN1CCN(c2ccc(CNS(=O)(=O)Cc3cccc(C(F)(F)F)c3)cc2)CC1`, the Potency was active: 6.51 µM. For `COc1ccc(C(C)=O)cc1Cn1c(C)c(C(=O)NCCC#N)sc1=O`, the Potency was “inactive”. In the case of `O=C(c1ccccc1)c1ccc(N2CCOCC2)cc1`, the Potency is reported as inconclusive [inhibitor, partial curve]. In the case of `COc1ccc(-c2cc3ncccc3cn2)cc1`, the Potency is reported as inconclusive [inhibitor, single point]. For `c1ccc2c(c1)[nH]c1c(N3CCN(C4CCCCC4)CC3)ncnc12`, the Potency was inconclusive [inhibitor, single point]. In the case of `COc1ccc(OC)c(S(=O)(=O)N2CCC(C(=O)N3CCc4ccccc4C3)CC2)c1`, the Potency is reported as inconclusive [inhibitor, single point]. In the case of `O=C(/C=C/c1ccccc1)N(Cc1cccc(Cl)c1)C1CCS(=O)(=O)C1` (stereo not drawn), the Potency is reported as inconclusive [inhibitor, single point]. In the case of `Cc1cc(C)cc(NC(=O)CSc2nnc(CNC(=O)c3ccco3)n2C)c1`, the Potency is reported as inconclusive [inhibitor, single point]. With `COc1ccc(C(CNC(=O)C(C)(C)Oc2ccc(Cl)cc2)N2CCOCC2)cc1` (stereo not drawn) the Potency was inconclusive [inhibitor, single point]. With `Cc1cc(-c2ccccc2)nc(Nc2nc3c(C)cccc3c(=O)[nH]2)n1` the Potency was inconclusive [inhibitor, single point]. With `CCOc1ccc(CN2CCOc3ccc(C(O)c4cccnc4)cc3C2)cc1` (stereo not drawn) the Potency was inconclusive [inhibitor, single point]. With `O=C(CNc1ccccc1)N/N=C/c1ccc([N+](=O)[O-])cc1` the Potency was “inactive”.
